# The other results are listed elsewhere or left out. At the low end of the ranking the order means little. The protein was read in a cell extract, so binding may be indirect.
# Biological target: T1, HNF4alpha8 (COS-7 nuclear extract) (UniProt P41235-5)
# T1 sequence: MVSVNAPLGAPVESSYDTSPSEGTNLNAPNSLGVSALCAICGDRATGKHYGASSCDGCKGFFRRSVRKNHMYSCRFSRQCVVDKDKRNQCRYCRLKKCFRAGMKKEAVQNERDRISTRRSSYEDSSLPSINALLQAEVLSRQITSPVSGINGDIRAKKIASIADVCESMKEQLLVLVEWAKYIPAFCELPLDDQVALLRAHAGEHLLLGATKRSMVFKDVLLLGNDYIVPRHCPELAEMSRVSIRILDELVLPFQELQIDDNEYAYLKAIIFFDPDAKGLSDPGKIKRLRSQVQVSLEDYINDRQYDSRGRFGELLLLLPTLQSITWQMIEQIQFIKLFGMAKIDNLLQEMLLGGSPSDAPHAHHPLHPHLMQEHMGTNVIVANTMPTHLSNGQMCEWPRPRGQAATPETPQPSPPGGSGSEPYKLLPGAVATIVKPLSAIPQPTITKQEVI
# Assay: protein-binding microarray
# Conditions: COS-7 nuclear extract on double-stranded Agilent 4x180k PBM; binding buffer, salt, pH and temperature not given; high values mean tight binding; double strand, one strand shown; sequences stand for … in …GCCTAGGGAGATTAGAGTATCGGTCGA
row,Sequence,binding signal (log2 normalized intensity)
1,GGATCGGAACCCCACCCCCACGCCCCCCAG,7.03
2,GCACCAGAGATAATATGCTTACTTAACTCC,-1.17
3,TGCTCATTGACCCTTAGGCCAAGGCTTACT,2.52
4,TTTGTCTGTGTAGACTCATCTGGTGTCATT,1.95
5,CTTCTCCCTCTTATCAGCTGCTAAGTCTTT,0.883
6,GAATGAGGGAGGCAGCCACCTAGGCCGGTC,-1.33
7,AATGCTGCAATTCTCTTTGCCAAAGCATAG,-1.26
8,GTATGTGGACTTTCAACTGCAGGGGGGTGG,3.09
9,CTTATCTGGTGTGCTTTCTGTCCTCTCAAA,1.25
10,CAAATAAACCTTTGACCAATTGACCCTATC,4.69
11,AATTTAGCAAGACTGCAAAATAGACAAACA,-1.19
12,AGAGCAGGACTGATATCCTGGGCTTTTAAT,-1.24
13,CTTGATAACAAAAATATCACAATCCTTAAG,-1.4
14,TGCCCAGGGATTCCTGAAGATCGCAGACTT,-1.26
15,GGACATTCTATGGAATACAGCAGGGTAGAA,-0.863
16,CTGCTCCCCTGGCCTCACCCTTGTCCCTGA,2.8
17,AATCTAGGATAACTCTAGTGATCTTATCAG,0.988
18,CCAAAGAAAAAAGCCAATCTCTCAAATCTA,-1.29
19,CAGTGCAGCGGGGTCAGAGAAACCTGGCTG,-1.24
20,GTTGGGCAGAAGGTGTTTCAGATGGACCAA,1.98
21,GGAGACTTCCAGGGAATAAAGAACTCTAAG,-1.31
22,TAAGCTATGTGGTGGAATGGAAAGAATATG,0.046
23,AGTGCCATGTAATCAAACTGAACTTTGAAA,4.48
24,GTCCCAGCCTAGGCCTTTGTGTAAACTCCT,-0.694
25,ATCTGGGACAAGGGGGAGGAGAGTACTGTC,-1.32

row,Sequence,binding signal (log2 normalized intensity)
1,TCCGCTTGCCTGAGGGTCATGACTAAAGCA,1.13
2,AAAGCAGCCAACCAGAGGCTGAAGTGAAGT,-1.21
3,GCAGTTTAGAGAAAGGGTCAAAGGTTAAGC,9.04
4,CAGCCGGAGAGGCAAGTATGGTAAGGTCGA,1.53
5,TTCCCTTGTTTACCTTGGTGTTTCTTTGAT,1.89
6,TTACCTCTGCTCCCCCTGCCCTTCGTCCTG,4.04
7,TGCAATAGAGCCACATTCTGAGACTAAAGA,-1.25
8,CTGGCCTTTCATGCCGGCGTGACCCCCACT,5.79
9,GGACTTTGAACCTTGGGTCTGTAATCTCAC,7.84
10,AGAATAAGGGTTCATCTGACTGGAAGAGCC,-0.344
11,ACCCCACTTTGGTTCACCGCTCACTGCTCC,-0.611
12,TACTCTAGAACACTTTCCACTCTCTACTGA,-1.39
13,CCTGGGATCGAAAGGACATTGTCCATCACC,1.06
14,AGCCTGGGCCCCAGGGGACGTGGAATAGAT,-0.711
15,GGGACCGGCCTTTCCCGGCTGCCTAAGCAC,-1.35
16,TCTTTTGAGCTGTGGTTAAGACTCAAAGTT,0.106
17,GTAAGTGTTAATGGCACTTCGTTTCAAAGT,0.602
18,AGGTCACACTGATACAGCATGGCCCAGGGA,-1.35
19,TCTGATTAGAGGCTCAGGTAAAGGCATGCT,-1.26
20,TGCACTTATCTTAATACTTTGGAACTCAGT,2.06
21,TACATTCTTAGAAGATAAAGTGTCTCCCTC,1.49
22,CTCTCTCGTTTTTTTTTTCCCTGAGTCTGT,2.21
23,AAAAAAAAAAATACTCCTATCACCGAGGGA,-1.31
24,TCTCAGGTGAGCAGAGGGAGGACAAAGTTC,5.01
25,GCTGAAAGTACTGGCCAGATGAGGTCAGCA,2.47

row,Sequence,binding signal (log2 normalized intensity)
1,TCTGCAACACTTTCTAAGGACACAACAGAA,-1.29
2,GTGATGACCCCATACTTCAGCAATTTCTTA,1.16
3,CAAACAGAACTGTTAACTTTGTACTCAATT,2.26
4,CCTATATAGTTGAGATTGTAACCGTAAATG,1.06
5,GCAAGACTCGTGAAAAGAGTGATCTTTGGG,1.27
6,TGTCCTTTGTCCTGTACCTGGGAAGATAAG,1.55
7,AGTTGTCATTTGGGGCGGGCGGTCGGAGTC,0.264
8,CAGGGAACACACCATGTACAGAGAGCATTC,-1.29
9,TTCCTTCCAAAGGTCACAGTAGGGAAAGTG,4.11
10,TAAATGGACAGACACACCCTTCAGAGCTTG,-1.37
11,ATGCATGCTGTGTGTGTGTGTGTGTGTGTG,3.21
12,CCTGGCCTCTGAGGTGTTAACCTGATGCTG,-0.31
13,AAGGTTGGTTTTTGGAGACAGGAGTAGTCA,0.982
14,GGATATCCTGGCAGTGTGGAAAAGCTGGCT,-1.43
15,ACCCCTTCTTGACCTGCGTAGCCCAAAGGT,1.72
16,TCTCTTATCACCCTGAACAGTGGCTGGCCA,1.18
17,TGAATACACATAATGTGCTTATCAGCAAGG,0.46
18,ATGCTGGTGTGTGATAAAACCCATGGACCT,2.72
19,GCGAATATGTCAGGCTCAGGGACCCAGCGG,-1.32
20,CTGACTCAGACTGAGGATGGGCCAAGGTTC,2.55
21,AATAATACTGACTGAGAAACCAAGATCCTA,-1.05
22,TTGCTGTGCACTTCTCTTTGAGTCCCAATC,0.0503
23,TGCTCTCTCCAGGGGAGGGTGACCAGATTA,0.096
24,CCAGAAATCAACCTTTGATCGTTTGCATGC,5.61
25,GTCCAAAGGCAGTCTGGAAGTTGAATTCCT,-1.29

row,Sequence,binding signal (log2 normalized intensity)
1,CATTTGGGACAAAGTTCATCTGGGCTTTAG,3.75
2,GGGAGCAGTGGGGACGCCTTCCCCTGCCAC,-1.33
3,GCTGGCCTGTCTCCTGGCCTATTGTTCTTC,1.17
4,ATTATTAATTTACTGAAAAGTCTACCTTTG,0.963
5,TGACCTTTGTCCTGGCACAACTGGATGGTG,5.2
6,GGATTCCCAGATGGAGTGCTCTGAACCGTG,1.23
7,TTTCTGGTTCTCCAGCTAGCAAACAGCATA,-1.21
8,GCGACTTTAGGGGCCAAGGGAAAACTTCCC,-1.38
9,ATTGTCAATACCCTGTTATTAGTCCAAGAG,0.619
10,CGTCCGTCACCCCTTTCTTTGATTAGGAAA,1.07
11,TCTTTCTATATTTGTAGGCAGCTAGGCAGG,1.22
12,TAAGTTTAAGTCCAGAAAAGACCAAAAAGG,-1.28
13,CTAAGTGGCTCGACAACGATTTGGGAAATG,-1.23
14,GAGCAGTCTTGAGCGCAAATGATCAAAGGT,1.14
15,CCCCTTCTGTTTCCAGAAATCTGACCTCTG,5.06
16,GTTGAATGATGGCGAGTGTGCAATTAGAGC,-0.888
17,TTGTGTTTGTCTTAGGGGGTCTGGTTTCTA,1.16
18,GTTGCATGCAACCTTTGTCCTCATTGAGCC,5.82
19,AGCTGGAGGGGGACTGGAAGGGAGAGATAA,-1.38
20,AAGAGGAATGCTTTGAGCCAGAATCTGTCA,-0.971
21,CCAGCAAAGAGGGTCAAAGCCCAGGAGAGC,-1.2
22,AGAAGACTTTGGGGGTAGGTGGAGTGAGGG,-1.24
23,CAAAGGTCATTGGTATTGATAGCGCTTACT,3.35
24,CGAAAAAGGAAATATCTTCCCATAAAACCT,-1.34
25,TAAGGAAGGAAGGTGCTTATCAGAGCAAGA,-1.25

row,Sequence,binding signal (log2 normalized intensity)
1,CTGAGCCTCAGAACCATTTGTGAGGATGGG,-0.788
2,CAGAGCCGCACCCAGCTTTCATCTCGGCTG,-1.24
3,CTTTCATGAATAAATGACATAGTGACATTT,1.78
4,TTAAAAAAAAAAAAAACTATCAAACTAGTG,-1.26
5,TGAACAGAATAGAGGCCTTTGTGCTGACTA,-1.05
6,GGTAAACACTGAGCTTTCATCTAAGATCCT,-1.32
7,CCTCCTCCTGGGGGCTTTTGTTTAGGAAGA,0.484
8,GTCCAGTGGTGTCTTACCGGGATTTTGTTG,1.79
9,GGTGTGCCTCCTCCATCTCCTCCACCAGCT,-1.3
10,TTTTTGTGCCTCTTTGGTGAATTTTATGTC,1.36
11,TCCAGGGATGTCTTTTTCTGACCCATGGGT,2.81
12,CCTGCACACCTGCCTTTGATCAGGGACCTT,1.97
13,TCAGGTCCACCAAGGTGGTGAAGATGTCCT,0.309
14,GTCTATCTTAGCCATGTTCTCTAGAAACAG,-1.24
15,GGTTAAAGGTTATTTGCTCACCAGTGACCA,2.39
16,TTCCCTCCCTGGTATGTACTTTCTTTTGGC,1.71
17,AGTGTCCCACTTCAGGCAGGAATGCTGAAC,0.321
18,CGCCAGGTGGCCGAGCAGGACGCTACCCGC,-1.29
19,GAAAAAGTACACACCTGCAACCTATTTCTT,-1.25
20,GCCTTGTGGGAGCTGTAGTACGCTCCCTGT,-1
21,AGAGGTCAGAAGTCCAAAATCAGTCTCAGT,3.81
22,TCTAAAGTGACTTAGCAGGATTCTTGCTAC,-1.39
23,TTCTTCCTATGGGATCAAAGTGCGACAGGG,3.89
24,CCCTCACTTACATCCTCAGGTAAAGATCAA,0.915
25,GACCTCTCTCTCCCCAGACAGCCACTGTTT,2.32

row,Sequence,binding signal (log2 normalized intensity)
1,CAGAAGGAGGGCGGGGAGTCTCCTGGGTAA,-1.37
2,CAAAGAGAAATGGTGTGGACAGCAGACAAC,-1.25
3,GAAGGGAGGTGCCATGTCACCGCACAGGGG,-1.5
4,TGTTATCAAGTGAGAAACCACAGGAGTGCC,-1.3
5,CAGGCCTGTGTCCAAACTTCAGGATTCTTT,-1.11
6,GCTTACAACTCTAAGGGGGAAAGTCCACGT,4.61
7,GTCTTATCTACCTGGCTTGTTTGCAAAGCA,0.749
8,AGAATCTACAAGGACCAGATTCTTAAAGGG,-1.27
9,CTGAAAAATGTCAGCAAAGTGTCAAGTAGA,-0.843
10,GATCCCTGAACTTTGCTCCCACCCTGCAAT,5.45
11,GGCCATTCTGATTTGATAAGATGTGTAAAA,1.22
12,ATCTGCATGGACAGCACTTAGGGTTCAAAG,2.39
13,TATCTTACGCAACTGAAATTGCACTCTTTG,1.13
14,GTTTCGTAATATTTAGGTGTTTACTTACTG,1.37
15,TTTGGGCCAAATATTTATGGCTTGGGTTTA,0.649
16,TGAGCTAAGTCCCAAGGGATAGGCAGGAGT,-1.28
17,TGTTTGTTCTTGCTACCTACTCATTCATAT,0.79
18,CACTAGGACATATATGAGGAAGGGTGTGTA,0.262
19,TCAAAGGTCAGCTCTCCTTTGTCTTCTTGT,2
20,GGTGAGGGATGAGGACTTTGATCAGCAATG,4.69
